# Source: PubChem BioAssay AID624417 (National Center for Advancing Translational Sciences (NCATS), 2012)
# The campaign covered roughly 410,000 compounds. About 6,400 (1.6%) were called active. Inconclusive means that the source gave no clear call. Such entries were picked first, then a sample of the others. Calls come from the whole dose curve; as a rule, active = well fitted inhibition curve with a large enough effect; inconclusive = small, poorly fitted or top-dose-only effect; inactive = no such curve, though single readings can be large or run the other way. Potencies of inconclusive entries are left out as doubtful fits.
# Biological target: Glucagon-like peptide 1 receptor (Homo sapiens) (UniProt P43220)
# Assay: qHTS of GLP-1 Receptor Inverse Agonists (Inhibition Mode); note: nearly all actives have a fitted effect of over 55% in size
# Settings: HEK293 GLP-1R CRE-luciferase, luminescence, 24 h, GLP-1R form is constitutively active; series mostly up to 38.3 µM
# Procedure, shortened: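 Using stably transfected HEK293 (constitutively active GLP-1R, cAMP-luciferase reporter), compounds were incubated 24 hr and luciferase measured by luminescence.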
# Potency is the fitted concentration of half-maximal effect; tags give direction and shape of the fitted curve.
# Chain of UniProt P43220 (P43220 whole entry, looked up): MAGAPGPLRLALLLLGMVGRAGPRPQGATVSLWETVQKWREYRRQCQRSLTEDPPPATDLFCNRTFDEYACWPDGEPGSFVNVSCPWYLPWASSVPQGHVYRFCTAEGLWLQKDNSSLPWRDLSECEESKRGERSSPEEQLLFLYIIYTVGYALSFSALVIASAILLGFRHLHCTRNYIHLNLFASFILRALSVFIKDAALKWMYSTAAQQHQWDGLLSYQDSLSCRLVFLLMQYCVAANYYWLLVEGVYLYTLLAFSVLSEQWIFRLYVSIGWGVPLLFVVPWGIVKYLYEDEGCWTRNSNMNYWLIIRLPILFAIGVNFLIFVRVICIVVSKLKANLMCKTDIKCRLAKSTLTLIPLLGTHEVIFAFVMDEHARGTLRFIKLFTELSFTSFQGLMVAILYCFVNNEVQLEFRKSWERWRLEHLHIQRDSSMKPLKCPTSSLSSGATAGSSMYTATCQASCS
row,Structure (SMILES),Potency
1,CCc1ccc(NC(=O)CC2C(=O)NCCN2C(=O)c2ccc(F)cc2)cc1 (stereo not given),inactive
2,COc1ccc(-[n+]2c(C)cc(/C=C3\Sc4ccccc4N3C)cc2C)cc1,"inconclusive [inhibitor, partial curve, poor fit]"
3,Cc1ccc(C)c(NS(=O)(=O)c2ccc(NC(=O)CSc3ccc(Cl)cc3)cc2)c1,"inconclusive [inhibitor, partial curve, poor fit]"
4,CC(NCc1ccncc1)C12CC3CC(CC(C3)C1)C2 (stereo not given),"inconclusive [inhibitor, partial curve, poor fit]"
5,Cc1ccc2cc(CN(CCCN(C)C)C(=O)NCc3ccccc3)c(=O)[nH]c2c1C,"inconclusive [inhibitor, partial curve, poor fit]"
6,CC(C)(C)c1ccc(/C=C/C(=O)NC2CCS(=O)(=O)C2)cc1 (stereo not given),"inconclusive [inhibitor, single point]"
7,CCOC(=O)c1c(C)[nH]c(C(=O)N/N=C\c2ccccc2O)c1C,"inconclusive [inhibitor, partial curve, poor fit]"
8,COc1cc(C(=O)NCCSc2ccc(Cl)cc2)cc(OC)c1OC,"inconclusive [inhibitor, single point]"
9,Cc1ccc(Cn2c(C)c3cnn(CC(=O)NCCc4ccc(Cl)cc4)c(=O)c3c2C)cc1,inactive
10,Cc1cc(C=O)c(C)n1-c1cc(C(F)(F)F)ccc1N1CCOCC1,"inconclusive [inhibitor, single point]"
11,COc1cc(CC(=O)NC2CCCc3ccccc32)cc(OC)c1OC (stereo not given),"inconclusive [inhibitor, partial curve, poor fit]"
12,COC(=O)C1=CN(c2ccc(Oc3ccccc3)cc2)C(N)=C(C#N)C1c1cccc(OC)c1OC (stereo not given),"inconclusive [inhibitor, single point]"
13,CN(C)c1c([N+](=O)[O-])cc2[nH]c(=O)[nH]c2c1[N+](=O)[O-],inactive
14,CCc1noc(C)c1C(=O)Nc1ccc(S(=O)(=O)N2CCC(C)CC2)cc1,"inconclusive [inhibitor, partial curve, poor fit]"
15,Cc1ccc(O)c(NC(=S)NC(=O)c2ccccc2Cl)c1,"inconclusive [inhibitor, single point]"
16,S=C(Nc1cccc(Cl)c1Cl)NC1CCN(Cc2ccccc2)CC1,"inconclusive [inhibitor, full curve, poor fit]"
17,Cc1ccc(C(=O)c2ccccc2C(=O)OCC(=O)NCCc2ccccc2)cc1,"inconclusive [inhibitor, partial curve, poor fit]"
18,CN(CC(=O)Nc1ccccc1Cl)C(=O)c1ccc(COc2ccccc2)cc1,"inconclusive [inhibitor, single point]"
19,O=C(OCn1ncc(Cl)c(Cl)c1=O)c1cccc(C(F)(F)F)c1,"inconclusive [inhibitor, single point]"
20,O=C(COC(=O)c1ccc(F)c([N+](=O)[O-])c1)NC(=O)NCc1ccccc1,"inconclusive [inhibitor, single point]"

row,Structure (SMILES),Potency
1,COc1ccc(/C=N/NC(=O)CCCOc2ccc(Cl)cc2Cl)cc1[N+](=O)[O-],inactive
2,CCOc1ccccc1NC(=O)C1CCN(S(C)(=O)=O)CC1,inactive
3,COC(=O)[C@@]12C[C@@H](CC(=O)N3CCC(c4ccccc4)CC3)C(=O)N(CCc3ccc(OC)c(OC)c3)C1=CCC(C)(C)C2,"inconclusive [inhibitor, single point]"
4,Cc1ccc(S(=O)(=O)CCC(=O)OCC(=O)Nc2cc(S(=O)(=O)N3CCOCC3)ccc2C)cc1,inactive
5,O=C(NCCn1cc(SCc2ccc(F)cc2)c2ccccc21)c1cccs1,"inconclusive [inhibitor, partial curve, poor fit]"
6,Cc1ccc(S(=O)(=O)N2CCOCC2)cc1C(=O)NCC1CCCCC1,"inconclusive [inhibitor, single point]"
7,Cc1ccc(Cn2ccc(=O)c(OCc3c(Cl)cccc3Cl)c2C)cc1,"inconclusive [inhibitor, partial curve, poor fit]"
8,COC(=O)C1=C(C)N(C(C)C)C(=O)C1(NC(=O)c1ccc(C(C)(C)C)cc1)C(F)(F)F (stereo not given),"inconclusive [inhibitor, single point]"
9,CC(C)C1C(=O)N(Cc2cn(CC3CCCCC3)nn2)CCS(=O)(=O)N1Cc1ccc(-c2ccc(F)nc2)cc1 (stereo not given),"inconclusive [inhibitor, single point]"
10,S=c1[nH]nc(-c2ccc3ccccc3n2)n1-c1ccc2ncccc2c1,inactive
11,CCc1nc(-c2ccc(C)c(S(=O)(=O)N3CCN(c4ccc(C(C)=O)cc4)CC3)c2)no1,"inconclusive [inhibitor, single point]"
12,C=CCNC(=O)c1scc2c1CCCC2,inactive
13,COc1ccc(-c2[nH]ncc2CN2CCCC(C(=O)c3ccc(OC)cc3OC)C2)cc1 (stereo not given),"inconclusive [inhibitor, single point]"
14,CC(=O)NN1C(=O)c2ccccc2NC1c1ccccc1O (stereo not given),inactive
15,Cc1cc(C(=O)Nc2ccc(Cl)cc2)n(-c2ccccc2)n1,"inconclusive [inhibitor, partial curve, poor fit]"
16,CCCOc1ccc(CNC(=O)c2ccc3c(c2)N(CC)CCS3)cc1,"inconclusive [inhibitor, partial curve, poor fit]"
17,CC(C)=CCC/C(C)=C/CNC(=O)CC1C[C@H](C(=O)N2CCOCC2)[C@@]2(C)c3[nH]c4ccccc4c3CCN2C1=O (stereo not given in full),"inconclusive [inhibitor, single point]"
18,O=C(CCN1C(=O)C2C3C=CC(C4CC34)C2C1=O)Nc1ccc(Cl)cc1O (stereo not given),"inconclusive [inhibitor, single point]"
19,O=c1[nH]c2ccccc2n1CCCN1CCCCC1,inactive
20,CCOC(=O)C1C(=O)OC(C)(C)C1C(CC)C(=O)c1c(C)cc(C)cc1C (stereo not given),"inconclusive [inhibitor, partial curve, poor fit]"
